Experimental data reported in the supplement of paper PMC12067230.
The data scatter; read single values as rough.

Experiment: amyloid nucleation score relative to library mode (yeast Sup35 reporter selection) (log enrichment difference); higher = more amyloid nucleation; sequences are the first 22 residues of the Bri2 peptide extended by up to 12 random residues
Conditions: random library (experiment): 1;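 active = nucleation score significantly above 0 at FDR 0.05; inactive = not significantly above 0 or absent from output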
Description: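 Random C-terminal extensions of the 22-aa Bri2 peptide by 12 NNK codons; premature stops give shorter extensions. Peptides were fused to the Sup35 nucleation domain in S. cerevisiae [psi-pin-] and selected on -ADE-URA plates for 7 d at 30 °C. The nucleation score is log(output/input), centred to the mode of each of 3 independent libraries (1 input, 3 technical output replicates), with duplicates merged. Sequences absent from the output ('random_non_nuc') were imputed with the library mode value, so they are given as censored (<). Nucleators are scores significantly >0 at FDR 0.05.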
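Further: [psi-pin-] Saccharomyces cerevisiae expressing SupN fusions, induced by 100 µM Cu2SO4, selected 7 d at 30 °C without adenine and uracil, scored by deep sequencing of output versus input.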

Sequence	amyloid nucleation score
EASNCFAIRHFENKFAVETLICASCSQVVLCLLV	3.15
EASNCFAIRHFENKFAVETLICASEAASQERGVY	inactive
EASNCFAIRHFENKFAVETLICASETADDGMMMR	inactive
EASNCFAIRHFENKFAVETLICASFANIKPGLLG	inactive
EASNCFAIRHFENKFAVETLICASGAVLPGALRA	5.02
EASNCFAIRHFENKFAVETLICASGMALSGTARR	inactive
EASNCFAIRHFENKFAVETLICASGQGVSSSAVR	inactive
EASNCFAIRHFENKFAVETLICASGQSGATGRGW	inactive
EASNCFAIRHFENKFAVETLICASHVSLVRGTLE	5.51
EASNCFAIRHFENKFAVETLICASKEQGRDAV	0.655
EASNCFAIRHFENKFAVETLICASLELRSGAASA	inactive
EASNCFAIRHFENKFAVETLICASLGNTSFGTP	1.53
EASNCFAIRHFENKFAVETLICASLWSGSACLSS	0.451
EASNCFAIRHFENKFAVETLICASM	inactive
EASNCFAIRHFENKFAVETLICASMPSSPKDRES	0.376
EASNCFAIRHFENKFAVETLICASMSVCCASGHV	6.28
EASNCFAIRHFENKFAVETLICASMWQEWRDVRG	-0.0385
EASNCFAIRHFENKFAVETLICASNRNYSSVVIA	inactive
EASNCFAIRHFENKFAVETLICASPAGQLGGTDR	inactive
EASNCFAIRHFENKFAVETLICASPCHDSGDGKK	inactive

Sequence	amyloid nucleation score
EASNCFAIRHFENKFAVETLICASPEELGRSIKR	0.142
EASNCFAIRHFENKFAVETLICASPQLQRSNQG	inactive
EASNCFAIRHFENKFAVETLICASPSAGPFWGSK	1.25
EASNCFAIRHFENKFAVETLICASRAGESRVAER	-0.717
EASNCFAIRHFENKFAVETLICASRLSLPLLGLG	inactive
EASNCFAIRHFENKFAVETLICASRMVESNRCPP	1.7
EASNCFAIRHFENKFAVETLICASSLGLRLPFMS	-0.0385
EASNCFAIRHFENKFAVETLICASSRFV	-0.265
EASNCFAIRHFENKFAVETLICASSTMIVFGMDR	4.08
EASNCFAIRHFENKFAVETLICAST	-0.029
EASNCFAIRHFENKFAVETLICASTCMYDTQLI	inactive
EASNCFAIRHFENKFAVETLICASTMKGCRRDFT	-0.0194
EASNCFAIRHFENKFAVETLICASVCRVSSARRW	inactive
EASNCFAIRHFENKFAVETLICASVMVQECNRRY	0.466
EASNCFAIRHFENKFAVETLICASVQYCRRKMTL	inactive
EASNCFAIRHFENKFAVETLICASVSCAWGECAR	6.17
EASNCFAIRHFENKFAVETLICASWVIHKPRKVP	inactive
EASNCFAIRHFENKFAVETLICASYRYNRYIRLW	inactive
EASNCFAIRHFENKFAVETLICAT	inactive
EASNCFAIRHFENKFAVETLICATAIWFIDISCR	inactive

Sequence	amyloid nucleation score
EASNCFAIRHFENKFAVETLICATALWMLTKWGR	3.6
EASNCFAIRHFENKFAVETLICATAYARPLLSWR	inactive
EASNCFAIRHFENKFAVETLICATCFHVGCVTRT	6.96
EASNCFAIRHFENKFAVETLICATCSQFMGTSCS	4.51
EASNCFAIRHFENKFAVETLICATELQLRCHG	inactive
EASNCFAIRHFENKFAVETLICATEPRLSLSCVI	inactive
EASNCFAIRHFENKFAVETLICATEVT	0.443
EASNCFAIRHFENKFAVETLICATEWTPVCGWRW	inactive
EASNCFAIRHFENKFAVETLICATGRKDTCKTWT	inactive
EASNCFAIRHFENKFAVETLICATGVRTVGSALG	inactive
EASNCFAIRHFENKFAVETLICATGYAVEVRPEL	inactive
EASNCFAIRHFENKFAVETLICATILQSATRRLV	-0.372
EASNCFAIRHFENKFAVETLICATKTYEHYGICV	inactive
EASNCFAIRHFENKFAVETLICATKVETGWCSVL	0.627
EASNCFAIRHFENKFAVETLICATLMERLRCCSR	inactive
EASNCFAIRHFENKFAVETLICATMFGHLAILHT	inactive
EASNCFAIRHFENKFAVETLICATMWNPVMETSR	inactive
EASNCFAIRHFENKFAVETLICATRALTSAIWLC	inactive
EASNCFAIRHFENKFAVETLICATRAS	inactive
EASNCFAIRHFENKFAVETLICATRFGLFVIPLL	4.31

Same assay, conditions: random library (experiment): 2

Sequence	amyloid nucleation score
EASNCFAIRHFENKFAVETLICASEISCQLEFCS	inactive
EASNCFAIRHFENKFAVETLICASFNG	4.3
EASNCFAIRHFENKFAVETLICASGIWPFIVRQW	inactive
EASNCFAIRHFENKFAVETLICASGWMLDDWVIR	3.67
EASNCFAIRHFENKFAVETLICASICFGFRGFHT	1.74
EASNCFAIRHFENKFAVETLICASIGTSWFMRRA	5.21
EASNCFAIRHFENKFAVETLICASKCDSFIRLVA	inactive
EASNCFAIRHFENKFAVETLICASLGPKPQYVWR	4.52
EASNCFAIRHFENKFAVETLICASLNPDLRFHKC	inactive
EASNCFAIRHFENKFAVETLICASLVGVT	inactive
EASNCFAIRHFENKFAVETLICASSGRQFWGSAG	2.9
EASNCFAIRHFENKFAVETLICASVFMFNSSCGP	8.57
EASNCFAIRHFENKFAVETLICASVLFHEYAFDS	3.18
EASNCFAIRHFENKFAVETLICASVNESYYGTED	inactive
EASNCFAIRHFENKFAVETLICASVVVTYSGSTS	5.1
EASNCFAIRHFENKFAVETLICASYGVMTHYRQG	2.89
EASNCFAIRHFENKFAVETLICASYIVMRNSRGH	inactive
EASNCFAIRHFENKFAVETLICATCFIGR	8.25
EASNCFAIRHFENKFAVETLICATDEYVFVWDHR	inactive
EASNCFAIRHFENKFAVETLICATFRWGIEIISK	-0.593
EASNCFAIRHFENKFAVETLICATGTRREKVASG	inactive
EASNCFAIRHFENKFAVETLICATLIGASVERSK	6.91

Same assay, conditions: random library (experiment): 3

Sequence	amyloid nucleation score
EASNCFAIRHFENKFAVETLICASCMRRSVMLWR	inactive
EASNCFAIRHFENKFAVETLICASCTMRKMSVLV	inactive
EASNCFAIRHFENKFAVETLICASCVYLSLAGAD	8.74
EASNCFAIRHFENKFAVETLICASDMYWRDLRLL	5.41
EASNCFAIRHFENKFAVETLICASERKSLWCFPG	1.96
EASNCFAIRHFENKFAVETLICASEYSSY	inactive
EASNCFAIRHFENKFAVETLICASFEGQNARWGR	0.0944
EASNCFAIRHFENKFAVETLICASGRIIQSGG	0.315
EASNCFAIRHFENKFAVETLICASKYRKVREY	inactive
EASNCFAIRHFENKFAVETLICASLALKVTGMSR	inactive
EASNCFAIRHFENKFAVETLICASLSNRMSPGVV	inactive
EASNCFAIRHFENKFAVETLICASLWRDAWQRTD	inactive
EASNCFAIRHFENKFAVETLICASPPGAAKADSR	inactive
EASNCFAIRHFENKFAVETLICASQFRN	inactive
EASNCFAIRHFENKFAVETLICASQPMVDEVGVE	inactive
EASNCFAIRHFENKFAVETLICASR	inactive

Sequence	amyloid nucleation score
EASNCFAIRHFENKFAVETLICASRSRGEIARAG	inactive
EASNCFAIRHFENKFAVETLICASRTLVWRVLGG	inactive
EASNCFAIRHFENKFAVETLICASTCQFRHRWWT	inactive
EASNCFAIRHFENKFAVETLICASVIVISVGAVV	inactive
EASNCFAIRHFENKFAVETLICATCTGSGSMMLV	6.27
EASNCFAIRHFENKFAVETLICATDAKVYDVVMQ	inactive
EASNCFAIRHFENKFAVETLICATGAMRIVCSAC	0.758
EASNCFAIRHFENKFAVETLICATGEPIRWCREL	3.89
EASNCFAIRHFENKFAVETLICATIVGSD	inactive
EASNCFAIRHFENKFAVETLICATIVLDGNVTRV	5.49
EASNCFAIRHFENKFAVETLICATLSFLINHAVV	inactive
EASNCFAIRHFENKFAVETLICATLYIHDDCLDC	inactive
EASNCFAIRHFENKFAVETLICATNGFSWVRSDW	inactive
EASNCFAIRHFENKFAVETLICATQYLKSMGIGT	inactive
EASNCFAIRHFENKFAVETLICATRLVTAGSQWS	inactive
EASNCFAIRHFENKFAVETLICATRMRCG	inactive
